According to paper PMC4274898:
These are yes or no findings as the source states them, for the method shown. Some binding calls cover weakened binding; strength is not graded here.

T1: ARF6 (Arabidopsis thaliana) (UniProt Q9ZTX8)
T1 sequence: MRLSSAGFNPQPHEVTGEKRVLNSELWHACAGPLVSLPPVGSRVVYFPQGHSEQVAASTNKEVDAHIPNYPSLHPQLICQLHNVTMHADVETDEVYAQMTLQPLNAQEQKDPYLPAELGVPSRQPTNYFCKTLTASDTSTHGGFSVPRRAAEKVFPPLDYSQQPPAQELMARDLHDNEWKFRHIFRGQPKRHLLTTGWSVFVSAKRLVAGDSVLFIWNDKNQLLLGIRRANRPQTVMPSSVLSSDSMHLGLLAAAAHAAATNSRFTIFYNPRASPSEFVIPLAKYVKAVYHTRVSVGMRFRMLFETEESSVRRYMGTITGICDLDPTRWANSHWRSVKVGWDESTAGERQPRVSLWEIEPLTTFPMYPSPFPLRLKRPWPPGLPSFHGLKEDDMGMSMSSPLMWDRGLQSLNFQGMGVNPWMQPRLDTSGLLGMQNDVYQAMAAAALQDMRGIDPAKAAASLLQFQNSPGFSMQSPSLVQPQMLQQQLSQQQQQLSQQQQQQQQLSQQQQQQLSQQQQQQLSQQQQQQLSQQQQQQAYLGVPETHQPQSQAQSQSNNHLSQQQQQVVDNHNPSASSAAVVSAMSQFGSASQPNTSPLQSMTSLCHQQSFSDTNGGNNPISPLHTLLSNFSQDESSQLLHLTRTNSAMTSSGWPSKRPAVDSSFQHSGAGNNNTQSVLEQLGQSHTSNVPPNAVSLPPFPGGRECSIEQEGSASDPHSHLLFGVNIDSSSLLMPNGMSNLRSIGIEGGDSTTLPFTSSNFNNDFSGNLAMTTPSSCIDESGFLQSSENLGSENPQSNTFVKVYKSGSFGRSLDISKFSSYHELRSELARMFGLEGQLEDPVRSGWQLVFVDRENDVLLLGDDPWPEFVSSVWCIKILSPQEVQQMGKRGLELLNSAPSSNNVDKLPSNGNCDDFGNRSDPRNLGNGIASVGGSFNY

T2: ARF8 (Arabidopsis thaliana) (UniProt Q9FGV1)
T2 sequence: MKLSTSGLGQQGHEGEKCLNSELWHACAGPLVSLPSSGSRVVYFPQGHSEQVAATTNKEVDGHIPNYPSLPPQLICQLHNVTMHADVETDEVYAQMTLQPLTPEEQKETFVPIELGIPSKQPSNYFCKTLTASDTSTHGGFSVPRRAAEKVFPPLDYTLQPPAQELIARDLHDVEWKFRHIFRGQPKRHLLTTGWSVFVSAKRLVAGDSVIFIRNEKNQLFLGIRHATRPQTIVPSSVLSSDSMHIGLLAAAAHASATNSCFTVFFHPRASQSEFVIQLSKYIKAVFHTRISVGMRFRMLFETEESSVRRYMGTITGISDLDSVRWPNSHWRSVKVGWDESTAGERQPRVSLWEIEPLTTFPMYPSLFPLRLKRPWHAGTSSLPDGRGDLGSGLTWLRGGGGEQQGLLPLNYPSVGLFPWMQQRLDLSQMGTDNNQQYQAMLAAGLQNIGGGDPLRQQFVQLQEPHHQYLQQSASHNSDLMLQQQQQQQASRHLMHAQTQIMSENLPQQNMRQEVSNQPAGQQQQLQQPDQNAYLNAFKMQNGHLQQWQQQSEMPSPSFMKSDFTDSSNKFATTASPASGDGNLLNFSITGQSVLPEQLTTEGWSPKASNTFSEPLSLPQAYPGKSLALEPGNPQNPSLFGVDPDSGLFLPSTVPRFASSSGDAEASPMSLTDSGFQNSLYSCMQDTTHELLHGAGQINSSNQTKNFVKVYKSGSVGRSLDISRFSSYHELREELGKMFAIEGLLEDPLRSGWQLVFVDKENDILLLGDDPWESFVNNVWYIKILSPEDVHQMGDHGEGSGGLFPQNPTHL

T3: ARF4 (Arabidopsis thaliana) (UniProt Q9ZTX9)
T3 sequence: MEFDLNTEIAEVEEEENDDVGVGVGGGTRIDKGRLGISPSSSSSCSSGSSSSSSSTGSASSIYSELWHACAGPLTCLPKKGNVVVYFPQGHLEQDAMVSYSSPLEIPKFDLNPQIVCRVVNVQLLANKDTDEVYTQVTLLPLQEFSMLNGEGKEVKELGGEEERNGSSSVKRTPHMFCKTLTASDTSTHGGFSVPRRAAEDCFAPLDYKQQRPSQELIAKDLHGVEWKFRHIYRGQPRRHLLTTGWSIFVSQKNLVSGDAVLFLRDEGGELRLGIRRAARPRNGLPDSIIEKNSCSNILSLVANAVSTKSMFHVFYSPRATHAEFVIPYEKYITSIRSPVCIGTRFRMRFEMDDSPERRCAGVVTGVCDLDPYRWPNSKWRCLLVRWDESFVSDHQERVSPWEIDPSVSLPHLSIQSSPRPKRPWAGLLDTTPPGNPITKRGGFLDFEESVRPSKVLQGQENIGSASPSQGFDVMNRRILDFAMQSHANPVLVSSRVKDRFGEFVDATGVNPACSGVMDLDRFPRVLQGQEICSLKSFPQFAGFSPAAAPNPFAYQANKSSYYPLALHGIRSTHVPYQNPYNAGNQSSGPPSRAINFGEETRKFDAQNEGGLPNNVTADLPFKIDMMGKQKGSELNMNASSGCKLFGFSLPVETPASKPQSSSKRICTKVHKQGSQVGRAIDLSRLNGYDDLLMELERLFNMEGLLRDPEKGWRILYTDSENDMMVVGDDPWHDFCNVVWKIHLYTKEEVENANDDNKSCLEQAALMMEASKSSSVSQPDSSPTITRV

B1: Aux/IAA30 (protein, UniProt Q9M1R4 1-172)
chain: MGRGRSSSSSSIESSCKSNPFGVSSSNTRNLSTDLRLGLSFGSSSGQYYNGGDNHEYDGVGAAEEMMIMEEEEQNECNSVGSFYVKVNMEGVPIGRKIDLLSLNGYHDLITTLDYMFNASILWAEEEDMCSEKSHVLTYADKEGDWMMVGDVPWEMFLSSVRRLKISRAYHY
B2: Aux/IAA27 (protein, UniProt Q9ZSY8 1-305)
chain: MSVSVAAEHDYIGLSEFPTMEATTMSDKTKTRDNNNGLNFKATELRLGLPGSESPERVDSRFLALNKSSCPVSGAKRVFSDAINDSNKWVFSPGSTTATGDVGSGSGPRTSVVKDGKSTTFTKPAVPVKEKKSSATAPASKAQVVGWPPIRSFRKNSMASSQSQKPGNNSETEEAEAKSGPEQPCLYVKVSMEGAPYLRKIDLKTYKSYLELSSALEKMFSCFTIGQFGSHGGCGRDGLNESRLTDLLRGSEYVVTYEDKDSDWMLVGDVPWEMFICSCKKLRIMKSSEAIGLAPRVMEKCRSRN
B3: Aux/IAA26 (protein, UniProt Q8LAL2 1-269)
chain: MEGCPRNREIGPKLLDLIPQGRKWYQEDKNNTDQEKKLELRLGPPGGDEEDHSAIKKKNTEIRNIKKETEDKSFHCFNGNHFSPSNKTTSVPHISQKRTAPGPVVGWPPVRSFRKNLASTSSSKLGNESSHGGQINKSDDGEKQVETKKEGMFVKINMDGVPIGRKVDLNAYNSYEQLSFVVDKLFRGLLAAQRDISDGQGEEKPIIGLLDGKGEFTLTYEDNEGDKMLVGDVPWQMFVSSVKRLRVIKSSEISSALTFGCSKQEKMMH
B4: Aux/IAA31 (protein, UniProt Q8H174 1-158)
chain: MEVSNSCSSFSSSSVDSTKPSPSESSVNLSLSLTFPSTSPQREARQDWPPIKSRLRDTLKGRRLLRRGDDTSLFVKVYMEGVPIGRKLDLCVFSGYESLLENLSHMFDTSIICGNRDRKHHVLTYEDKDGDWMMVGDIPWDMFLETVRRLKITRPERY
B5: Aux/IAA19 (protein, UniProt O24409 1-197)
chain: MEKEGLGLEITELRLGLPGRDVAEKMMKKRAFTEMNMTSSGSNSDQCESGVVSSGGDAEKVNDSPAAKSQVVGWPPVCSYRKKNSCKEASTTKVGLGYVKVSMDGVPYLRKMDLGSSQGYDDLAFALDKLFGFRGIGVALKDGDNCEYVTIYEDKDGDWMLAGDVPWGMFLESCKRLRIMKRSDATGFGLQPRGVDE
B6: Aux/IAA18 (protein, UniProt O24408 1-267)
chain: MEGYSRNGEISPKLLDLMIPQERRNWFHDEKNSVFKTEEKKLELKLGPPGEEDDDESMIRHMKKEPKDKSILSLAGKYFSPSSTKTTSHKRTAPGPVVGWPPVRSFRKNLASGSSSKLGNDSTTSNGVTLKNQKCDAAAKTTEPKRQGGMFVKINMYGVPIGRKVDLSAHNSYEQLSFTVDKLFRGLLAAQRDFPSSIEDEKPITGLLDGNGEYTLTYEDNEGDKMLVGDVPWQMFVSSVKRLRVIKTSEISSALTYGNGKQEKMRR
B7: Aux/IAA3 (protein, UniProt Q38822 1-189)
chain: MDEFVNLKETELRLGLPGTDNVCEAKERVSCCNNNNKRVLSTDTEKEIESSSRKTETSPPRKAQIVGWPPVRSYRKNNIQSKKNESEHEGQGIYVKVSMDGAPYLRKIDLSCYKGYSELLKALEVMFKFSVGEYFERDGYKGSDFVPTYEDKDGDWMLIGDVPWEMFICTCKRLRIMKGSEAKGLGCGV
B8: Aux/IAA28 (protein, UniProt Q9XFM0 1-175)
chain: MEEEKRLELRLAPPCHQFTSNNNINGSKQKSSTKETSFLSNNRVEVAPVVGWPPVRSSRRNLTAQLKEEMKKKESDEEKELYVKINMEGVPIGRKVNLSAYNNYQQLSHAVDQLFSKKDSWDLNRQYTLVYEDTEGDKVLVGDVPWEMFVSTVKRLHVLKTSHAFSLSPRKHGKE
B9: Aux/IAA16 (protein, UniProt O24407 1-236)
chain: MINFEATELRLGLPGGNHGGEMAGKNNGKRGFSETVDLKLNLSSTAMDSVSKVDLENMKEKVVKPPAKAQVVGWPPVRSFRKNVMSGQKPTTGDATEGNDKTSGSSGATSSASACATVAYVKVSMDGAPYLRKIDLKLYKTYQDLSNALSKMFSSFTIGNYGPQGMKDFMNESKLIDLLNGSDYVPTYEDKDGDWMLVGDVPWEMFVDSCKRIRIMKGSEAIGLAPRALEKCKNRS
B10: Aux/IAA29 (protein, UniProt Q93WC4 1-251)
chain: MELDLGLSLSPHKSSKLGFNFDLNKHCAIEGAASCLGTEKLRFEATFGLGNVEENCYMPKQRLFALNGQPNEEDEDPLESESSIVYDDEEENSEVVGWPPVKTCMIKYGSYHHRHIRNHHHCPYHHRGRRITAMNNNISNPTTATVGSSSSSSISSRSSMYVKVKMDGVAIARKVDIKLFNSYESLTNSLITMFTEYEDCDREDTNYTFTFQGKEGDWLLRGDVTWKIFAESVHRISIIRDRPCAYTRCLF
B11: Aux/IAA20 (protein, UniProt O24410 1-175)
chain: MGRGRSSSSSSIESSSKSNPFGASSSTRNLSTDLRLGLSFGTSSGTQYFNGGYGYSVAAPAVEDAEYVAAVEEEEENECNSVGSFYVKVNMEGVPIGRKIDLMSLNGYRDLIRTLDFMFNASILWAEEEDMCNEKSHVLTYADKEGDWMMVGDVPWEMFLSTVRRLKISRANYHY

target: T1, ARF6 (Arabidopsis thaliana); assay: two-hybrid; S. cerevisiae AH109 co-transformed with pGBKT7-ARF (bait) and pGADT7-Aux/IAA (prey); growth on SD/-Ade-His-Leu-Trp against SD/-Leu/-Trp; at least 10 independent colonies; serial dilutions for strength

| binding | Binder |
| --- | --- |
| binds | B1 |
| binds | B2 |
| binds | B3 |
| binds | B4 |
| binds | B5 |
| binds | B6 |
| binds | B7 |
| binds | B8 |
| binds | B9 |
| binds | B10 |
| binds | B11 |

target: T2, ARF8 (Arabidopsis thaliana); assay: as above

| binding | Binder |
| --- | --- |
| binds | B1 |
| binds | B2 |
| binds | B3 |
| binds | B4 |
| binds | B5 |
| binds | B6 |
| binds | B7 |
| binds | B8 |
| binds | B9 |
| binds | B10 |
| binds | B11 |

target: T3, ARF4 (Arabidopsis thaliana); assay: as above

| binding | Binder |
| --- | --- |
| binds | B1 |
| binds | B2 |
| binds | B3 |
| binds | B4 |
| binds | B5 |
| binds | B6 |
| binds | B7 |
| binds | B8 |
| binds | B9 |
| binds | B10 |
| binds | B11 |
